According to PubChem BioAssay AID463173 (ICCB-Longwood Screening Facility, Harvard Medical School, 2010):
About 4,300 (8.3%) of roughly 52,000 compounds were called active. Cut-off read from the data, not from the text of the source: active = survival mostly below about 52% (no sharp cut-off); inactive = mostly above about 56%. Some of the results follow.

These compounds were tested on DeltatarO mutant (assay: S. aureus survival, RN4220 and DeltatarO strains – OD600, teichoic acid synthesis inhibitors, primary screen (AID 463173)). Conditions: S. aureus RN4220 wild type/DeltatarO growth, OD600, 18 h, hits give low values, screened at 18.75 µg/mL (by protocol).

| Structure (SMILES) | survival |
| --- | --- |
| CCN(C(=O)CSc1nc2ccccc2nc1Cc1ccccc1OC)c1ccccc1 | inactive: 81% |
| CCCOc1ccc(CC2C(=O)Nc3ccc(Br)cc32)cc1 (stereo unspecified) | active: 0% |
| O=C(O)/C=C/C(=O)Nc1ccc(-c2nc3ccccc3o2)cc1 | inactive: 74% |
| CCSC1=NC2(CCN(C(=O)NC3CCCCC3)CC2)N=C1c1ccc(OC)cc1 | inactive: 107% |
| Cc1nc(CC(=O)Nc2ccc(C(N)=O)cc2)cs1 | inactive: 49% |
| CC(C(=O)NCc1ccccc1)n1ccc2cc(S(=O)(=O)N3CCCC3)ccc21 (stereo unspecified) | active: 20% |
| CCOc1ccccc1CNC(=O)CCc1cn(C)c2ccccc12 | inactive: 99% |
| COc1ccc(NC(=O)Cn2c(=O)n(Cc3ccco3)c(=O)c3sc4ccccc4c32)cc1Cl | inactive: 80% |
| Cc1ccc(N2CCn3c2nc2c3c(=O)n(Cc3cccc(Cl)c3)c(=O)n2C)cc1C | inactive: 87% |
| CC(C)c1ccc(NC(=O)CN2C(=O)C3(SCC(=O)N3c3ccc(F)cc3)c3ccccc32)cc1 (stereo unspecified) | inactive: 85% |
| O=C(Nc1ccc(Cl)cc1)c1ccc2c(c1)N(Cc1ccccc1)CCS2 | inactive: 93% |
| CCOC(=O)c1cc2c(=O)n3ccccc3nc2n(CCCOC)c1=NC(=O)c1cc2ccccc2o1 | inactive: 65% |
| COc1ccc(NC(=O)Cn2c(=O)n(Cc3ccccc3Cl)c(=O)c3cc(OC)c(OC)cc32)cc1 | inactive: 83% |
| COc1cccc(-n2c(C)nc3c(cnn3-c3ccc(C)c(C)c3)c2=O)c1 | active: 50% |
| Cc1ccc(Cn2c(C)c3cnn(CC(=O)N4CCN(c5cc(C)ccc5C)CC4)c(=O)c3c2C)cc1 | inactive: 51% |
| Cc1ccc(CCNC(=O)c2cc3ccccn3n2)cc1 | inactive: 93% |
| O=c1oc2ccc(Cl)cc2cc1-c1nc(-c2cccs2)no1 | inactive: 100% |
| Cn1c(=Nc2cccc(O)c2)sc2ccccc21 | inactive: 83% |
| Cc1ccc(C(=O)CC2(O)C(=O)N(CCc3ccccc3)c3ccc(Br)cc32)cc1 (stereo unspecified) | inactive: 39% |
| CC(=O)Nc1ccc(S(=O)(=O)NC2(C(F)(F)F)C(=O)Nc3c2c(=O)[nH]c(=O)n3-c2ccc(C)cc2)cc1 (stereo unspecified) | inactive: 76% |
| CCc1cccc(NC(=O)CN2C(=O)COc3ccc(S(=O)(=O)N4CCC(C)CC4)cc32)c1 | inactive: 80% |
| CCOCCCNC(=O)C(c1ccc(OC)cc1)N(Cc1cccs1)C(=O)CNC(C)=O (stereo unspecified) | inactive: 65% |
| COc1cccc(C(=O)NCc2cn3cccc(C)c3n2)c1 | inactive: 90% |

| Structure (SMILES) | survival |
| --- | --- |
| Cn1c(=O)n(C)c2cc(CNCc3ccccc3Cl)ccc21 | inactive: 81% |
| O=C(c1ccccc1)N(Cc1ccco1)c1nc(-c2ccccc2)cs1 | inactive: 78% |
| O=C(c1ccc(Cl)cc1)n1nc(-c2ccccc2)nc1NCc1ccco1 | active: 29% |
| COC(=O)c1c(NC(=O)CS(=O)(=O)c2ccc(C)cc2)sc2c1CCCCC2 | inactive: 76% |
| CCOc1cc2[nH]c(=O)n(CCC(=O)N3CCN(c4ccccc4)CC3)c(=O)c2cc1OCC | inactive: 78% |
| Cc1ccc(-n2nc3c(N4CCCC(C(=O)NCc5ccccc5C)C4)nnc(C)c3c2C)cc1 (stereo unspecified) | inactive: 78% |
| COc1ccccc1C(=O)OCc1cc(=O)n2c(C)csc2n1 | inactive: 72% |
| CCSc1ncc(Cl)c(C(=O)Nc2cc(C)ccc2C)n1 | inactive: 85% |
| O=C(CNS(=O)(=O)c1ccccc1)NCC1CCCO1 (stereo unspecified) | inactive: 89% |
| CCCOC(=O)c1c(-c2ccccc2)c(-c2ccccc2)nn(C)c1=O | inactive: 60% |
| CC(=O)c1c(C)n(-c2cccc(Cl)c2)c2ccc(OC(=O)c3ccccc3)cc12 | inactive: 77% |
| COc1cccc(NC(=O)CSc2nc(=O)[nH]c3c2CCCC3)c1 | inactive: 82% |
| COc1ccc(CCNC(=O)CN2C3CCCC2CC(=O)NC3)cc1OC (stereo unspecified) | inactive: 81% |
| N#C/C(=C(/O)CN1C(=O)c2ccccc2C1=O)c1nc2ccccc2[nH]1 | inactive: 76% |
| CCOc1ccc(S(=O)(=O)Nc2cc3c(C(=O)OCc4ccccc4)c(C)oc3c3ccccc23)cc1 | inactive: 94% |
| CCOc1ccc(NC(=O)c2nn(C)c3c2COc2ccccc2-3)cc1 | inactive: 69% |
| CC(C)c1ccc(NC(=O)CSC2=Nc3ccccc3C3=NC(CCC(=O)NCc4cccs4)C(=O)N23)cc1 (stereo unspecified) | inactive: 73% |
| COc1ccc2c(c1)c1c(c(=O)n(-c3cc(Cl)ccc3C)c(=O)n1Cc1ccc(F)cc1)n2C | inactive: 102% |
| Cc1cc(C)nc(NCC(O)CNc2ccccc2Cl)n1 (stereo unspecified) | inactive: 80% |
| Cc1ccc(NC(=O)N2CCN3CCCCC3C2)cc1C (stereo unspecified) | inactive: 80% |
| Cc1c(Cl)cccc1-n1ncc(C(=O)NC2CCCC2)c1C1CCN(C(=O)OC(C)(C)C)CC1 | inactive: 102% |
| Cc1oc2ncn(C)c(=O)c2c1C(=O)N(C)c1ccccc1F | inactive: 87% |
| COc1ccc(NC(=O)CSC2=Nc3ccccc3C3=NC(CCC(=O)NCCc4ccccc4)C(=O)N23)cc1 (stereo unspecified) | inactive: 87% |

| Structure (SMILES) | survival |
| --- | --- |
| CC(C)(C)OC(=O)N1CCC(c2c(C(=O)N3CCN(C4CCCCC4)CC3)cnn2-c2cccc(Cl)c2)CC1 | inactive: 73% |
| COC(=O)c1ccc(NS(=O)(=O)c2ccc3[nH]c4c(c3c2)CCCCC4)cc1 | inactive: 91% |
| CC(=O)N1CCCc2cc(S(=O)(=O)N3CCC(C(=O)NC4CCCCC4)CC3)ccc21 | inactive: 94% |
| CCOC(=O)N1CCC(NC(=O)c2cnn(-c3cccc(C)c3)c2-n2cccc2)CC1 | inactive: 85% |
| O=C1C2=C(Nc3ccccc3SC2c2c(F)cccc2Cl)c2ccccc21 (stereo unspecified) | inactive: 94% |
| COc1ccc(NC(=O)Nc2cn(CC(C)C)c(=O)c3ccccc23)c(OC)c1 | inactive: 91% |
| O=C(NCCc1ccc(F)cc1)C(=O)NCC(c1cccs1)S(=O)(=O)c1cccs1 (stereo unspecified) | inactive: 113% |
| COc1ccc(-c2cc(-c3ccccc3)nc3c2COc2ccc(Cl)cc2-3)cc1 | inactive: 87% |
| CCC(C)C12CN(C(C)=O)CC(C)(CN(C(C)=O)C1)C2=O (stereo unspecified) | inactive: 108% |
| Cc1cccc(OCCn2nnc3sc4c(c3c2=O)CCCC4)c1 | inactive: 65% |
| CC(C)c1ccc(NS(=O)(=O)c2ccc3[nH]cc(C(=O)NC4CCCCC4)c(=O)c3c2)cc1 | active: 14% |
| CC1=C(C(=O)Nc2ccc(C)cc2C)C(c2ccc(C(C)C)cc2)n2nc(C(F)(F)F)nc2N1 (stereo unspecified) | inactive: 57% |
| COc1ccc(-n2c(-c3ccc(Cl)cc3)cc3c2CC(C)(C)CC3=O)c(OC)c1 | active: 4% |
| CCOC(=O)c1sc(NC(=O)c2nc(SC)ncc2Cl)c(C(=O)OCC)c1C | inactive: 89% |
| CCOCc1nnc(NS(=O)(=O)c2ccc(Cl)cc2)s1 | inactive: 99% |
| Cc1cccc(-n2cc(-c3ccccc3)nc2SCC(=O)Nc2ccccc2Cl)c1 | inactive: 115% |
| Cc1ccc(C)c(NC(=O)C(C)N(c2ccccc2)S(C)(=O)=O)c1 (stereo unspecified) | inactive: 139% |
| Cc1oc2ncn(CC(C)C)c(=O)c2c1C(=O)Nc1ccc(Cl)cn1 | inactive: 86% |
| O=C(NCc1ccccc1Cl)C1CCCN(c2nc3ccccc3n3cccc23)C1 (stereo unspecified) | active: 46% |
| Cc1ccc(C)c(S(=O)(=O)NCC(c2ccc(N(C)C)cc2)N2CCOCC2)c1 (stereo unspecified) | inactive: 71% |
| COc1cccc(-c2cc(C(F)(F)F)nc(NCc3ccc(F)cc3)n2)c1 | active: 4% |
| COc1cccc(-c2nc(S(=O)(=O)c3ccccc3)c(NCc3ccccc3)o2)c1 | inactive: 61% |
| Cn1c(=O)c2sccc2n2c(CCCC(=O)Nc3ccc(F)c(F)c3)nnc12 | inactive: 125% |

| Structure (SMILES) | survival |
| --- | --- |
| COc1ccc(CCNC(=O)c2ccc3c(c2)nc2n3CCOC2)cc1OC | active: -2% |
| Cc1c(C(=O)Nc2ccc(F)cc2F)nnn1-c1ccccc1Br | inactive: 66% |
| COc1ccc(C(=O)/C=C/c2cn(CC(O)CN(CC(C)C)CC(C)C)c3ccccc23)cc1OC (stereo unspecified) | inactive: 91% |
| COCCCNC(=O)c1c(C)nn(-c2ccc(F)cc2)c1-n1cccc1 | inactive: 85% |
| CC(C)c1ccc(NC(=O)CCS(=O)(=O)c2ccc(Br)s2)cc1 | inactive: 114% |
| CC1=C(C(=O)Nc2ccccc2)C(c2ccncc2)n2nc(SCc3ccccc3)nc2N1 (stereo unspecified) | inactive: 72% |
| Cc1cccc2cc(C#N)c(SCC#N)nc12 | inactive: 99% |
| Cc1cccc(C)c1NC(=O)c1ccc2nc(CCc3ccccc3)oc2c1 | inactive: 69% |
| Cc1cccc(NC(=O)c2sc3cccc(Cl)c3c2Cl)c1 | active: 11% |
| COc1ccc(CNC(=O)Cc2c(C)c3ccc(O)cc3oc2=O)cc1 | inactive: 55% |
| CCCC1CC(C)(/C(C)=N\NC(N)=S)OC1=O (stereo unspecified) | inactive: 98% |
| NNc1c(O)c(C(=O)O)cc2ccccc12 | inactive: 69% |
| CNC(=O)c1c(NC(=O)c2cc(=O)c3ccccc3o2)sc2c1CCC2 | inactive: 94% |
| CCCCNC(=O)CSc1c2c(nc3ccc(Cl)cc13)CCCC2 | active: 38% |
| COc1ccc(-c2nc3ccccc3s2)cc1NC(=O)c1ccccc1OC | inactive: 77% |
| O=C(CSc1nc2ccccc2n1Cc1cccc(Cl)c1)N1CCN(c2ccc(F)cc2)CC1 | inactive: 80% |
| c1ccc(N2CCN(c3ncnc4c3nc3n4CCCC3)CC2)cc1 | inactive: 73% |
| Cc1cc2oc(C(=O)Nc3cccc(-c4nc5ccccc5o4)c3)c(C)c2cc1Cl | inactive: 80% |
| O=C(Nc1ccc(Cl)cc1)c1ccc2c(c1)N(Cc1ccccc1)C(=O)c1ccccc1S2(=O)=O | inactive: 110% |
| COc1ccc(OC)c(CNC(=O)Cn2nc(C)c3c(C)n(-c4ccccc4)nc3c2=O)c1 | inactive: 92% |
| CCOc1ccccc1CNC(=O)CC(C)n1ccc(C)n1 (stereo unspecified) | inactive: 77% |
| CCc1nn(CC(=O)NCc2cccc(OC)c2OC)c(=O)c2cc3occc3n12 | inactive: 126% |
